From the RNAGym collection of RNA variant scans (doi:10.1101/gad.245936.114)
This sample is rich in variants without activity.

B1: tRNA (parent)
chain: CUCUCGGUAGCCAAGUUGGUUUAAGGCGCAAGACUUUAAUUUAUCACUACGAAAUCUUGAGAUCGGGCGUUCGACUCGCCCCCGGGAGAUUUUUUCCUCGAGCAA

Variants of: B1
Experiment: nonsense suppression (GFP-seq) (ratio to wild type); higher = more function; SUP4oc tRNA, yeast GFP reporter sort-seq
Outline: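 Yeast were grown in raffinose/galactose medium with 80 mg/L adenine, each strain bearing a genome-integrated ochre-suppressor tRNA variant from a ~3% random-mutation library, a galactose-driven GFP ochre reporter, and RFP. After sorting into GFP/RFP bins, every bin was sequenced on an Illumina platform at phred ≥30. The GFPSEQ value, a measure of nonsense suppression, is the weighted bin median GFP/RFP relative to the unmutated parent tRNA, using each variant's estimated cell share per bin as the weight. Only variants with ≥100 reads and ≥30 cells were included.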
With CUCUCGCUAUCCAAGUUGGUCUAAGGCGCAAGACUUUAAUUUAUCACUACGAAAUCUGGAGAUCGGGCGUACGAAUCGCCCCCGGGAGAUUUUUUCCUCGAGCAA [G7C G10U U21C U58G U71A C75A] the nonsense suppression was at most 0.026.
CUCUCGCUAGCCAAGUUGGUUUAAUGCGCAUGACUUUAAUUUAUCACUACGAAAUCUUGAGAUCGGGCGUUCGACUCGCCCCCGGGAGAUUUUUUCCUCGAGCAA [G7C G25U A31U] gave a nonsense suppression of at most 0.026.
In the case of CUCUCGCGAGCCAAGUGGGUUUCUGGCGCAAGACUUUAAUUUAUCACUACGAAAUCUUGAGAUCGGACGUUCGACUCGCCCCCAGGAGAUUUUUUCCUCGAGCAA [G7C U8G U17G A23C A24U G67A G84A], the nonsense suppression is reported as at most 0.026.
Work on CUCUCGCUAGCCAAGUUGGUUUAAGGCGCAAGACUUUAAUUUAUCACUACGAAAGCUUGAGAUCGGGCGUUCGACUCGGCCCCGGGAGAUUUUUUCCUCGAGCAA [G7C U55G C79G] yielded a nonsense suppression of at most 0.026.
Variant CUCUCGCUAGCCAAGUUGGUUUAAGGCGCAAGACUUUAAUUUAUCACUACGAAAUCUUGAGAUCUGGCGUUCGACUCGCCCCCGGGAGAUUUUUUCCUCGAGCAA [G7C G65U] has a nonsense suppression of at most 0.026.
For CUCUCGCUAGCCAAGUUGGUUUAAGGCGCAAGACUUUAAUUUAUCACUACGAAAUCUUGAGAUCGGGCGUUUGACUCGCCCCCGGGAGAUUUUUUCCUCGAGCAA [G7C C72U], the nonsense suppression was at most 0.026.
With CUCUCGCUAGCCAAGUUGGUUUAAGGCGCAAGACUUUAAUUUAUCACUACGAAACCUUGAGAUCGGGCGUUCGACUCGCCCCCGGUAGAUUUUUUCCUCGAGCAA [G7C U55C G86U] the nonsense suppression was at most 0.026.
CUCUCGCUAACCAAGUUGGUUUAAGGCGCAAGACUUUAAUUUAUCACUACGAAAUCUUGAGAUCGGGGGUUCGACUCGCCCCCGGGAGAUUUUUUCCUCGAGCAA [G7C G10A C68G] showed a nonsense suppression of at most 0.026.
Work on CUCUCGCUAGCCAAGUUGGUUUAAGGCGCAAGACUUUAAUUUAUCACUACGAAAUCUUCACAUCGGGCGUUCGACUCGCCCCCGGGGGAUUUUUUCCUCGAGCAA [G7C G59C G61C A87G] yielded a nonsense suppression of at most 0.026.
Variant CUCUCGCUAGACAAGUUGGUGUAUGGCGCAAGACUUUAAUUUAUCACUACGAAAUCCUGAGAUCGGGCGUUCGACUUGCCCCAGGGAGAUUUUUUCCUCGAGCAA [G7C C11A U21G A24U U57C C77U C83A] has a nonsense suppression of at most 0.026.
For CUCUCGCUAGCCAACUUGGUUUAAGCCGCAAGACUUUAAUUUAUCACUACGAAAUCUUGAGCUCGGGCGUUCGACUCGCCGCCGGGAGAUUUUUUCCUCGAGCAA [G7C G15C G26C A62C C81G], the nonsense suppression was at most 0.026.
Work on CUCUCGCUAGACAAGUUGGUGUAUGGCGCAAGACUUUAAUUUAUCACUACGAAAUCCUGAGAUCGGGCGUUCGACUGGCCCCAGGGAGAUUUUUUCCUCGAGCAA [G7C C11A U21G A24U U57C C77G C83A] yielded a nonsense suppression of at most 0.026.
With CUCUCGCUAGCCAAGUUGGUUUAAGGCGCAAGACUUUAAUUUAUCACUACGAAAUCUUGAGAUCGGGCGUUCGACUCGCCCCCGGGAGUUUUUUUCCUCGAGCAA [G7C A89U] the nonsense suppression was at most 0.026.
In the case of CUCUCGCUAGCCAAGUUGGUUUAAGACGCAAGACUUUAAUUUAUCACUACGAAAUCUUGAGAUCGGGCGUUCGACUCACCCCCGGGAGAUUUUUUCCUCGAGCAA [G7C G26A G78A], the nonsense suppression is reported as at most 0.026.
Variant CUCUCGCUAGCCAAGUUGGUUUAAGGCGCAAGACUUUAAUUUAUCACUACGAAAUCUUAAGAUCGGGCGUUCGACUCGCCCCCGGGAGAUUUUUUCCUCGAGCAA [G7C G59A] has a nonsense suppression of at most 0.026.
CUCUCGCAAGCCAUGUUGGUUUAAGGCGCAAGCCUUUAAUUUAUCACUACGAAAUCUUGAGAUCGGGCGUUCGACUCGCCCCCGGGAGAUUUUUUCCUCGAGCAA [G7C U8A A14U A33C] showed a nonsense suppression of at most 0.026.
Variant CUCUCGCUAGCCAAGUUGGUGUAAGGCGCAAGACUUUAAUUUAUCACUACGAAAUCUUGAGAUCGGGCGUUCGACUCGCCCCCGGGAGAUUUUUUCCUCGAGCAA [G7C U21G] has a nonsense suppression of 0.0521.
Work on CUCUCGCUAGCCAAGUUGGUUUAACGCUCAAGACUUUAAUUUAUCACUACGAAAUCUUGGGAUCGGGCGUUCGACUCGCCCCCGGGAGAUUUUUUCCUCGAGCAA [G7C G25C G28U A60G] yielded a nonsense suppression of at most 0.026.
For CUCUCGCUAGCCAAGUUGGUUUAAGGCGAAAGACUUUAAUUUAUCACUACGAAAUCUUGAUAUCCGGCGUUCGACUCGCCCCCAGGAGAUUUUUUCCUCGAGCAA [G7C C29A G61U G65C G84A], the nonsense suppression was at most 0.026.
CUCUCGCUAGCCAAGUUGGGUUAAGGCGCAAGACUUUAAUUUAUCACUACGAAAUCUUGAGAUCGGACGUUCGACUCGCCCCCGGGAGAUUUUUUCCUCGAGCAA [G7C U20G G67A] gave a nonsense suppression of at most 0.026.
Work on CUCUCGCUAGCCAAGUUGGUUUAAGGCGCAAGACUUUAAUUUAUCACUACGAAAUCUUGAGAUCGGGCGUUCGACUCGCCCCCGGUAGAUUUUUUCCUCGAGCAA [G7C G86U] yielded a nonsense suppression of at most 0.026.
In the case of CUCUCGCUAGCCAAGUUGGCUUAAGGCGCAAGACUUUAAUUUAUCACUACGAAAUCUUGCGAUCGGGCGUACGACUCGCCCCCGGGAGAUUUUUUCCUCGAGCAA [G7C U20C A60C U71A], the nonsense suppression is reported as at most 0.026.
For CUCUCGCUAGCCAAGUUGGUUUAAGGCGCAAGACUUUAAUUUAUCACUACGAAAUCUUGAGAUCGGGCGUUCAACUCGCCCCCGGGAGAUUUUUUCCUCGAGCAA [G7C G73A], the nonsense suppression was at most 0.026.
Variant CUCUCGCUAGCAAAGUUGGUUUAAGGCGCAAGACUUUAAUUUAUCACUACGAAAUCUUGAGAUCGAGCGUUCGAAUCGCCCUCGGGAGAUUUUUUCCUCGAGCAA [G7C C12A G66A C75A C82U] has a nonsense suppression of at most 0.026.
Work on CUCUCGCUAGCCAAGUUGGUUUAAGGCUCAAGACUUUAAUUUAUCACUACGAAAUCUUGAGAUCGGGCGUUCGACUAGCCCCCGGGAGAUUUUUUCCUCGAGCAA [G7C G28U C77A] yielded a nonsense suppression of at most 0.026.
With CUCUCGCUAGCCAAGUUGGUUUAAUGCGCAGGACUUUAAUUUAUCACUACGAAAUCUUGAGAUCGGGCGUUCGACUCGCCCCCGGCAGAUUUUUUCCUCGAGCAA [G7C G25U A31G G86C] the nonsense suppression was at most 0.026.
Work on CUCUCGCUACCCAAGUUGGUUUAAGGCGCAAGACUUUAAUUUAUCACUACGAAAUCUUGAGAUCGGGCGUUCGACUCGCCCCCAGGAGAUUUUUUCCUCGAGCAA [G7C G10C G84A] yielded a nonsense suppression of at most 0.026.
